According to the supplement of paper PMC4967469:
IC50 is the fitted dose that halves viability relative to control wells, and lower means more sensitive; a limit (>, <) means that the fit lies beyond the doses tested. AUC is the area under the same curve over the 256-fold range up to the top dose, as a fraction; it is 1 without any effect and falls as sensitivity rises. For some assays here: Any top dose called inferred comes from the curve model; the source does not state it.

Assays:
Assay in all cases: Viability of human cancer cell lines after 72 h of drug (GDSC screen)
JW-7-52-1 = compound: CCC(=O)N1CCN(c2ccc(-n3c(=O)ccc4cnc5ccc(-c6cnc7ccccc7c6)cc5c43)cc2C(F)(F)F)CC1 [JW-7-52-1]; settings: top dose 1.2 µM; top dose inferred
Experimental: (§1)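 Human cancer cell lines in 384-well plates, medium with 10% serum, drug for 72 h over a 256-fold dose range (nine 2-fold or five 4-fold steps up to the top dose). Adherent lines were fixed and stained with the nucleic acid dye Syto60, suspension lines read with resazurin; signal relative to control wells, capped at 0 and 100%. One two-parameter sigmoid per drug and line, fitted in a mixed model over all curves with the slope shared within a line.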

XL-880 = compound: COc1cc2c(Oc3ccc(NC(=O)C4(C(=O)Nc5ccc(F)cc5)CC4)cc3F)ccnc2cc1OCCCN1CCOCC1 [XL-880]; settings: top dose 5.12 µM; top dose inferred
Experimental: as §1

Rapamycin = compound: CO[C@H]1C[C@@H]2CC[C@@H](C)[C@@](O)(O2)C(=O)C(=O)N2CCCC[C@H]2C(=O)O[C@H]([C@H](C)C[C@@H]2CC[C@@H](O)[C@H](OC)C2)CC(=O)[C@H](C)/C=C(\C)[C@@H](O)[C@@H](OC)C(=O)[C@H](C)C[C@H](C)/C=C/C=C/C=C/1C [Rapamycin]; settings: top dose 0.1 µM; top dose inferred
Experimental: as §1

IPA-3 = compound: Oc1ccc2ccccc2c1SSc1c(O)ccc2ccccc12 [IPA-3]; settings: top dose 32 µM; top dose inferred
Experimental: as §1

Z-LLNle-CHO = compound: CCCC[C@@H](C=O)NC(=O)[C@H](CC(C)C)NC(=O)[C@H](CC(C)C)NC(=O)OCc1ccccc1 [Z-LLNle-CHO]; settings: top dose 2.56 µM; top dose inferred
Experimental: as §1

Tubastatin A = compound: CN1CCc2c(c3ccccc3n2Cc2ccc(C(=O)NO)cc2)C1 [Tubastatin A]; settings: top dose 20 µM
Experimental: as §1

CI-1040 = compound: O=C(NOCC1CC1)c1ccc(F)c(F)c1Nc1ccc(I)cc1Cl [CI-1040]; settings: top dose 10 µM; top dose inferred
Experimental: as §1

Temozolomide = compound: Cn1nnc2c(C(N)=O)ncn2c1=O [Temozolomide]; settings: top dose 30 µM
Experimental: as §1

ZG-10 = compound: CN(C)C/C=C/C(=O)Nc1ccc(C(=O)Nc2cccc(Nc3nccc(-c4cccnc4)n3)c2)cc1 [ZG-10]; settings: top dose 10 µM; top dose inferred
Experimental: as §1

Cell Line	AUC (JW-7-52-1)	IC50 (JW-7-52-1) [µM]	AUC (XL-880)	IC50 (XL-880) [µM]	AUC (Rapamycin)	IC50 (Rapamycin) [µM]	AUC (IPA-3)	AUC (Z-LLNle-CHO)	IC50 (Z-LLNle-CHO) [µM]	AUC (Tubastatin A)	IC50 (Tubastatin A) [µM]	IC50 (IPA-3) [µM]	AUC (CI-1040)	IC50 (CI-1040) [µM]	AUC (Temozolomide)	IC50 (Temozolomide) [µM]	AUC (ZG-10)	IC50 (ZG-10) [µM]
SIG-M5 (acute myeloid leukaemia, suspension)	0.541	0.0941	0.499	0.317	0.687	0.018	0.508	0.802	0.912	0.785	6.4							
SU-DHL-1 (anaplastic large cell lymphoma, suspension)	0.939	1.06	0.689	0.915	0.99	> 0.1	0.997	0.842	1.11	0.997	> 20	> 32						
NB17 (neuroblastoma, adherent)	0.555	0.108	0.703	1.31	0.914	> 0.1		0.765	1.07	0.853	19.4		0.882	> 10	0.981	> 30		
GA-10 (Burkitt lymphoma, suspension)	0.199	0.0117			0.036	< 0.000391		0.787	0.928				0.872	7.05	0.99	> 30		
LB1047-RCC (kidney, adherent)			0.543	0.425	0.522	0.00724	0.954	0.699	0.626	0.944	> 20	> 32	0.789	5.04	0.981	> 30	0.686	2.22
HEL (acute myeloid leukaemia, semi-adherent)	0.279	0.0202	0.834	2.58	0.738	0.0259	0.602	0.761	0.771	0.825	9.4	3.61			0.99	> 30		
TGBC1TKB (biliary tract, adherent)			0.741	1.56	0.058	< 0.000391	0.858	0.71	0.624	0.988	> 20	26.1	0.864	8.61	0.988	> 30	0.798	4.71
NCI-H128 (small cell lung carcinoma, suspension)	0.918	> 1.2			0.941	> 0.1		0.954	> 2.56									
SUP-B15 (lymphoblastic leukaemia, suspension)	0.379	0.0353	0.349	0.124	0.378	0.00293	0.804	0.683	0.506	0.779	7.79	15.2	0.653	1.63				
